In PubChem BioAssay AID686979 (National Center for Advancing Translational Sciences (NCATS), 2013):
About 50,000 (12%) of roughly 420,000 compounds were called active. Inconclusive results, whose numbers are uncertain, are shown with a selection of clear calls. The call rests on the fitted dose curve; in most records, active means well fitted inhibition curve with a large enough effect; inconclusive means small, poorly fitted or top-dose-only effect; inactive means flat fitted curve, though single readings scatter. Potencies of inconclusive entries are left out as doubtful fits.
Potency means the concentration at half of the fitted maximal effect; tags describe the fitted curve by direction and shape.

Experiment: qHTS for Inhibitors of human tyrosyl-DNA phosphodiesterase 1 (TDP1): qHTS in cells in presence of CPT; further: nearly all actives have a fitted effect of over 55% in size
Conditions: chicken DT40 Tdp1-/-;hTDP1 cells + 20 nM CPT, ATP luminescence, 48 h; series mostly up to 46.2 µM
How it was run: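 Chicken DT40 Tdp1-/- cells stably complemented with human TDP1 were seeded at 400 cells/well in medium containing 20 nM camptothecin, exposed to pin-transferred compounds, and grown at 37 °C for at least 48 hr. Viability was read as ATP luminescence.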
In the case of Cc1cccc(N2CC(C(=O)Nc3nnc(SCC(=O)N4CCOCC4)s3)CC2=O)c1 (stereo not given), the Potency is reported as “inactive”. For COc1ccc(Cc2nnc(SCC(=O)Nc3ccccc3C#N)o2)cc1, the Potency was “inactive”. With CCn1c(CNC(=O)COc2ccc(C(C)C)cc2)nnc1SCC(=O)NC1CCCCC1C (stereo not given) the Potency was inconclusive [inhibitor, single point]. In the case of CC(C)c1nc(N2CCCC2)c(C#N)c2c1CCCC2, the Potency is reported as “inactive”. With O=C(O)C[C@H]1c2ccccc2S(=O)(=O)N1C1CCCCC1 the Potency was inconclusive [inhibitor, full curve, poor fit]. For COCCNC(=O)CN(Cc1ccc2c(c1)OCO2)C(=O)CCC(=O)Nc1nccs1, the Potency was active: 18.4 µM. In the case of CCC(C)n1c(SCC(=O)/C(C#N)=C(\C)N)nc2ccccc2c1=O (stereo not given), the Potency is reported as inconclusive [inhibitor, single point]. With C/C(=N/OC(=O)C1CC1)c1cc(-c2ccc(Cl)cc2)no1 the Potency was inconclusive [inhibitor, single point]. With COc1ccc2c(c1)[nH]c1c(=O)n(CCN(C)C)cnc12 the Potency was “inactive”. With CC(=O)NCC1CCCN(Cc2cn(-c3ccccc3F)nc2-c2cc(C)sc2C)C1 (stereo not given) the Potency was inconclusive [inhibitor, single point]. In the case of CC(=O)n1cc(CO)c2ccccc21, the Potency is reported as “inactive”. With CCC(C(=O)NCC1CCCO1)N(Cc1ccc(F)cc1)C(=O)CNS(=O)(=O)c1ccccc1 (stereo not given) the Potency was “inactive”. In the case of Cn1c(COc2ccccc2)nnc1SCC(=O)NC1CCCC1, the Potency is reported as “inactive”. For Cc1cccnc1C(NC(=O)C1CCN(Cc2cn(C)c3ccccc23)CC1)c1ccc(Cl)cc1 (stereo not given), the Potency was active: 4.61 µM. In the case of CCOc1ccc(CN2CCC(n3nccc3NC(=O)CCCc3ccccc3)CC2)cc1, the Potency is reported as inconclusive [inhibitor, single point]. In the case of Cc1ccc(S(=O)(=O)N2CCCC(C(=O)N3CCCc4ccccc43)C2)cc1 (stereo not given), the Potency is reported as active: 20.6 µM. With CCOc1ccccc1NC(=O)Nc1ccc2c(c1)OCO2 the Potency was inconclusive [inhibitor, full curve, poor fit]. In the case of CN(C)c1ccc(/C=C2\C(=O)/C(=C/c3ccc(N(C)C)cc3)c3ccccc32)cc1, the Potency is reported as inconclusive [inhibitor, single point]. In the case of O=C(NC1CCN(Cc2ccccc2)CC1)c1cc(S(=O)(=O)N2CCOCC2)ccc1Cl, the Potency is reported as inconclusive [inhibitor, single point]. For COc1ccc(CNC(=O)c2cc(=O)c3ccccc3o2)cc1, the Potency was inconclusive [inhibitor, single point]. For O=C(CN1CCOc2ccccc21)NC1CCCCCCC1, the Potency was inconclusive [inhibitor, partial curve]. With C#CCOCCOCCOCCNc1nc(N2CCN(C(=O)CCCCCCCCCCNC(=O)[C@@H](CCSC)n3cc(CCO)nn3)CC2)nc(N2CCN(C(=O)CCCCCCCCCCNC(=O)[C@H]([C@@H](C)CC)n3cc(CCCCN=C(N)N)nn3)CC2)n1 the Potency was inconclusive [inhibitor, single point]. For O=C(O)c1ccc(Cl)c(S(=O)(=O)Nc2cccc(C(=O)Nc3cccc(C(F)(F)F)c3)c2)c1, the Potency was “inactive”. In the case of CCCCCn1nc(C(=O)N2CCc3ccccc32)c2ccccc2c1=O, the Potency is reported as inconclusive [inhibitor, single point]. For O=C(c1ccccc1)C1CC1c1ccccc1 (stereo not given), the Potency was inconclusive [inhibitor, single point]. For COc1cccc(NC(=O)CN(C)C(C)C(=O)Nc2ccc(S(=O)(=O)N3CCOCC3)cc2)c1 (stereo not given), the Potency was inconclusive [inhibitor, single point]. In the case of O=C(Nc1nccs1)C1CC(=O)N(Cc2ccco2)C1 (stereo not given), the Potency is reported as “inactive”. In the case of O=C(NCCc1ccc(Cl)cc1)c1ccc(Br)s1, the Potency is reported as “inactive”. For O=C(COc1cc2oc(=O)c3c(c2cc1Cl)CCC3)Nc1ccc(CN2CCOCC2)cc1, the Potency was “inactive”. In the case of COc1cc(/C=C/c2nc(C#N)c(N3CCN(C)CC3)o2)cc(OC)c1OC, the Potency is reported as active: 8.2 µM. For CCOc1ccc(S(=O)(=O)Nc2cc(S(=O)(=O)N(CC)CC)ccc2N2CCCC2)cc1, the Potency was inconclusive [inhibitor, partial curve]. In the case of CC1CCCN(CCCNC(=O)c2ccc(CS(=O)(=O)c3c(Cl)cccc3Cl)o2)C1 (stereo not given), the Potency is reported as “inactive”. With CC(=O)c1cccc(-n2c(CCC(=O)O)ccc2-c2ccc(C)cc2)c1 the Potency was “inactive”. In the case of COc1ccc(SC2=C[C@@]3(O)CC[C@@H](O)[C@@](Sc4ccc(OC)cc4)(C2=O)[C@H]3O)cc1, the Potency is reported as active: 23.1 µM. With CCSc1ncc(Cl)c(C(=O)Nc2ccccc2Cl)n1 the Potency was “inactive”. In the case of O=C(OCc1c(-c2ccccc2)ncc2ccccc12)c1ccc(F)cc1, the Potency is reported as inconclusive [inhibitor, single point]. With COc1ccc(CCNC2=C(Cl)C(=O)N(CCc3ccccc3)C2=O)cc1OC the Potency was inconclusive [inhibitor, single point]. For NC(=O)CN1C(=O)C(O)(CC(=O)/C=C\c2ccc3c(c2)OCO3)c2ccccc21 (stereo not given), the Potency was “inactive”. In the case of COC(=O)C(CC(C)C)NC(=O)/C=C/c1ccc(Cl)cc1 (stereo not given), the Potency is reported as “inactive”. With C=CCN(Cc1cccc(OC)c1OC)C(=O)Oc1ccccc1 the Potency was inconclusive [inhibitor, single point]. With CCCn1nc2cc(C(=O)NCC34CC5CC(CC(C5)C3)C4)ccc2c1OCC the Potency was active: 20.6 µM. With Cc1cccc2cc(CN(Cc3nnnn3C3CCCCC3)C3CCCC3)c3nnnn3c12 the Potency was active: 20.6 µM. For CC(C)OCCCNC(=O)c1cc2c(=O)n(C)c3ccccc3c2n1C, the Potency was inconclusive [inhibitor, single point]. With CCc1ccc(CN2C(=O)c3ccccc3C2C(=O)NCC2CCCO2)cc1 (stereo not given) the Potency was “inactive”. With Cc1cccc(NC(=O)Nc2ccc(Cl)c(Cl)c2)n1 the Potency was “inactive”. With CCOc1ccc(-c2n[nH]c(=S)c3ccccc23)cc1 the Potency was active: 23.1 µM. For O=C1CC(c2ccco2)Cc2nc(Nc3nc(-c4ccccc4)c4ccccc4n3)ncc21 (stereo not given), the Potency was inconclusive [inhibitor, single point]. For CCOC(=O)C1(CCOc2ccccc2)CCN(Cc2cccc3c2OCO3)CC1, the Potency was active: 23.1 µM. For O=S(=O)(Nc1ccc(-c2cn3ccsc3n2)cc1)c1ccc2c(c1)OCCO2, the Potency was inconclusive [inhibitor, partial curve, poor fit]. With CN(C)S(=O)(=O)c1ccc(N2CCCC2)c(C(=O)Nc2ccc(Br)cc2F)c1 the Potency was inconclusive [inhibitor, single point]. For CC1CCC(NC(=O)c2cccc(S(=O)(=O)N3CCN(c4ccc(F)cc4)CC3)c2)CC1 (stereo not given), the Potency was inconclusive [inhibitor, single point]. For Cc1ccc(NS(=O)(=O)c2cc([N+](=O)[O-])ccc2NNC(=S)Nc2cc(C)ccc2C)c(C)c1, the Potency was inconclusive [inhibitor, single point]. For COc1ccccc1Cn1c(-c2ccco2)nc2nc3ccccc3nc21, the Potency was inconclusive [inhibitor, single point]. In the case of CCN1CCc2c(sc(N)c2C#N)C1, the Potency is reported as inconclusive [inhibitor, single point]. In the case of CSc1cccc(NC(=O)C2CCN(c3nc4ccccc4[nH]3)CC2)c1, the Potency is reported as inconclusive [inhibitor, single point]. With CN(CC(=O)NC(=O)NCc1ccccc1)Cc1ccc(Cl)c(Cl)c1 the Potency was active: 20.6 µM. For Cc1ccc(Cn2c(SCc3ccc(C(=O)NC4CCCCC4)cc3)nc3ccncc32)cc1, the Potency was inconclusive [inhibitor, single point]. In the case of COc1cc(OC)cc(-c2nc3nc(C)c(CCC(=O)NCc4ccco4)c(C)n3n2)c1, the Potency is reported as inconclusive [inhibitor, partial curve]. In the case of Cc1nnc2c(N3CCN(C(=O)c4ccco4)CC3)nc3ccccc3n12, the Potency is reported as inconclusive [inhibitor, single point]. For O=C1NC(=S)SC1=Cc1ccc(F)cc1, the Potency was inconclusive [inhibitor, single point]. In the case of COc1cc(C)ccc1OCCOc1cc(C)ccc1Cl, the Potency is reported as inconclusive [inhibitor, single point]. In the case of Cc1cc2nc(-c3cccc(Cl)c3)c(CC(C)(C)C)n2c(C)c1Br, the Potency is reported as inconclusive [inhibitor, single point]. With CCOc1ccc(NC(=O)CCC(=O)Nc2cc(OC)c(NC(=O)c3ccco3)cc2OC)cc1 the Potency was “inactive”. In the case of OCc1cccc(-c2cnc3c(Nc4cccc(OC(F)(F)C(F)F)c4)nccn23)c1, the Potency is reported as inconclusive [inhibitor, partial curve, poor fit]. For CCN(CC)S(=O)(=O)c1ccc(NC(=O)[C@@H](NC(=O)c2cc(OC)cc(OC)c2)C(C)C)cc1, the Potency was inconclusive [inhibitor, single point]. With CN(C(=O)CCc1nc(-c2ccccc2F)no1)c1ccc(Cl)cc1 the Potency was inconclusive [inhibitor, single point]. With c1ccc(CNc2cc(-c3cccnc3)ncn2)cc1 the Potency was “inactive”. For Cc1cccc(NC(=S)NCC2CCCO2)c1 (stereo not given), the Potency was “inactive”. For COC(=O)N1CCC2(CC1)CCN(c1cccc(-c3ccccc3)c1)CC2, the Potency was inconclusive [inhibitor, single point]. In the case of C#Cc1ccc([C@@H]2C=C(C(=O)N3CCN(Cc4ccccc4)CC3)O[C@H](OCC)[C@H]2CCCO)cc1, the Potency is reported as inconclusive [inhibitor, single point].
